Data published in the supplement of paper PMC3334620.
In all, about 33,000 sequences were measured (“E-score (-0.5 to 0.5)”: median about -0.053, highest 2% from about 0.37 on). The list shows a part of the results.

The sequences below were run against Hap1 (UniProt P0CE41) (assay: PBM E-score (8-mer binding enrichment) (E-score (-0.5 to 0.5)); higher = stronger / more preferred TF binding; most listed sequences are background and not binding sites). Details: protein concentration: 200 nM; construct: GST-DNA-binding domain.
How it was run: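 Yeast transcription factors carrying a GST tag, as full-length proteins or DNA-binding domains, were produced by PURExpress in vitro transcription/translation. About 100-200 nM protein was applied to universal all-10-mer Agilent arrays, double-stranded by primer extension on fresh or once-stripped slides. Bound protein was detected with fluorescent anti-GST, and scans were normalised with masliner. The Universal PBM Analysis Suite gave each ungapped eight-base word, pooled with its reverse complement, an E-score, a modified Wilcoxon-Mann-Whitney statistic.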

UniProt P0CE41, sequence (P0CE41 whole entry, the tested form may be a part): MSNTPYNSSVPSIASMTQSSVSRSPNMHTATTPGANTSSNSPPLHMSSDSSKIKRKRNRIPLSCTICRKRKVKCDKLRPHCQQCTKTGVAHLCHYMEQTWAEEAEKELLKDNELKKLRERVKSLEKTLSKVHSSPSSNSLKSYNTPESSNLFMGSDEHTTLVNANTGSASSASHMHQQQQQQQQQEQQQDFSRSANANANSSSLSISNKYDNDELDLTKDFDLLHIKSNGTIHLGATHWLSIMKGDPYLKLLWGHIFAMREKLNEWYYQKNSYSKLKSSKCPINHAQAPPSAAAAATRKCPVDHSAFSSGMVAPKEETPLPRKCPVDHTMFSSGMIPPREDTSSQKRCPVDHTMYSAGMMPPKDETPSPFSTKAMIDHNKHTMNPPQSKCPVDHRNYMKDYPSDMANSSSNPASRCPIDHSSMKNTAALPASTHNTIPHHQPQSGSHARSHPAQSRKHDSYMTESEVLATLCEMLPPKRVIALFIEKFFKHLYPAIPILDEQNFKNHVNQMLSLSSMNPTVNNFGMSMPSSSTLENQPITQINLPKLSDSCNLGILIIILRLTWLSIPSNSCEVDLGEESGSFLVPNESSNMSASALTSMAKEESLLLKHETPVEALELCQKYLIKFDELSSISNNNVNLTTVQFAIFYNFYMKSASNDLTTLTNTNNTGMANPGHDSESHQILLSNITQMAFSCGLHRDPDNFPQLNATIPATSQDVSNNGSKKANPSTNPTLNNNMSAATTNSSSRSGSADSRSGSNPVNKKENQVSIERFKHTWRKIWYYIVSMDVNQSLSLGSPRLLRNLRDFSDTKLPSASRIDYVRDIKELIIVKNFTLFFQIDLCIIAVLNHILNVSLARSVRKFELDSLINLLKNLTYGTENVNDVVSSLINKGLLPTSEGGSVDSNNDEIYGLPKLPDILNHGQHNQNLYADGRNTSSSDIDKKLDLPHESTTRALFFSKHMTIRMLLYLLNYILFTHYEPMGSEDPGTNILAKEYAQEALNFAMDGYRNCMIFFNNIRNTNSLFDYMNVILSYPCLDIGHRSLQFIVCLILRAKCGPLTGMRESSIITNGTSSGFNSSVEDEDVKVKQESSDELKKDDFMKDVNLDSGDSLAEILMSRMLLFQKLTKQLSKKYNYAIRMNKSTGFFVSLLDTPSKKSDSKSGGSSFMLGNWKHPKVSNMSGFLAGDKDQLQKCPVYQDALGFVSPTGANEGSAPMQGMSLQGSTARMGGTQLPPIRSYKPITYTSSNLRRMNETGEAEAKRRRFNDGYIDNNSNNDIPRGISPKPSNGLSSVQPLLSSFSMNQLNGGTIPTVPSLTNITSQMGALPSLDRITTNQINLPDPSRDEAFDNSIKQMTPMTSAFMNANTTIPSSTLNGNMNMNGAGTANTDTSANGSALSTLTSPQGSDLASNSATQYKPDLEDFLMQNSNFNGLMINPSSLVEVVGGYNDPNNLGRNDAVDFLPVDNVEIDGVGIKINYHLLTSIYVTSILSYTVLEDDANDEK

| Sequence | PBM E-score |
| --- | --- |
| CCTCGGGA | 0.189 |
| AACTACTC | 0.0233 |
| AACTTTAC | 0.00268 |
| ATGCACCA | -0.181 |
| AAGCGAAT | 0.0788 |
| CGGGCAAC | 0.164 |
| GTACCACA | -0.193 |
| CATAATAG | -0.00211 |
| AGCTTCAT | 0.0834 |
| CGACCCGC | 0.0885 |
| CCATATCA | -0.146 |
| ACGCCTGG | -0.109 |
| GTTTTTTA | -0.00769 |
| CTTATAAA | 0.0157 |
| CGCAAACA | 0.0439 |
| CCCCTTGC | -0.222 |
| CAGTGGCC | -0.0163 |
| CAAATAGC | -0.0282 |
| CTCCTGTA | -0.0904 |
| ACGACCGC | 0.245 |
| GTCTAGTA | -0.176 |
| ATGGCTGC | -0.119 |
| CCTAATAC | 0.0411 |
| ACGGAACG | 0.195 |
| ACTAGTTA | -0.226 |

| Sequence | PBM E-score |
| --- | --- |
| TCAGAAGA | -0.16 |
| CAGAGCTG | -0.19 |
| AATCAGAC | -0.198 |
| CTGGGAAA | -0.116 |
| AGTCATAA | 0.0105 |
| GGAGAAAA | 0.229 |
| AGATGACA | -0.241 |
| TCATCTAA | -0.0762 |
| CCACAACG | -0.0518 |
| TATCCGGA | 0.428 |
| GCCGTAAA | 0.223 |
| CATCCACG | -0.138 |
| CAATCGTG | -0.0221 |
| CCGGGGCG | 0.322 |
| GCCATGCA | -0.0565 |
| ATTCTTTA | -0.202 |
| GGTCGAAC | 0.0804 |
| AAGGTCGA | 0.00769 |
| GGTAGTAA | -0.0482 |
| AGATTGCG | 0.156 |
| GTATCTCA | -0.0446 |
| GCGCGCTA | 0.0841 |
| CACCGTCA | -0.116 |
| ATTACCAC | -0.015 |
| AGGAAAAT | -0.153 |

| Sequence | PBM E-score |
| --- | --- |
| AATATATC | 0.26 |
| GAAGCTTA | -0.0838 |
| AACTGACA | -0.208 |
| CTATGTAC | -0.211 |
| CGGCACCA | 0.133 |
| GAGACGGC | -0.0132 |
| GATTAAGA | 0.052 |
| AATACCAA | -0.0746 |
| GGATCAGA | -0.00626 |
| AACTAATC | 0.0717 |
| ACGCTCCC | -0.0376 |
| AAGCCATA | -0.223 |
| GAACGGTC | 0.14 |
| TCTTTTCA | -0.162 |
| AGGAGAAA | -0.189 |
| CTCTATGA | -0.311 |
| AAATTGCG | 0.0986 |
| AATAGACA | -0.131 |
| GACCACTA | -0.0858 |
| GTGTACAA | 0.0266 |
| ACCGGAGT | 0.4 |
| GGCTTTAC | 0.255 |
| AGGTTTGG | -0.179 |
| ACAAGTCC | 0.159 |
| ATCTAGAT | -0.206 |

| Sequence | PBM E-score |
| --- | --- |
| CAGTGCCA | -0.228 |
| ATCAGTCA | -0.176 |
| ATGAACTC | -0.0737 |
| CTCTTAGC | -0.0852 |
| GAATAACA | 0.0585 |
| AGCGGCGC | 0.185 |
| CGACATCA | -0.013 |
| GGGAGCCA | -0.251 |
| AGATAGTA | 0.0324 |
| GCCCTTAA | 0.105 |
| GAAGGGTC | 0.00905 |
| ATAAGTTC | 0.303 |
| CCCGACGG | 0.331 |
| TATCGCCA | 0.189 |
| CATCACAA | -0.218 |
| TATCGACA | -0.0811 |
| ACAAGTCT | -0.304 |
| AGACATAT | -0.206 |
| CACTCGTC | -0.0866 |
| GAACTACA | 0.0417 |
| GTGATCCA | -0.209 |
| AAAGCCGG | 0.439 |
| CTACTCAG | -0.295 |
| TACGTGAA | -0.167 |
| CTAAGGGA | -0.108 |

| Sequence | PBM E-score |
| --- | --- |
| AATGCCTG | -0.209 |
| AGCGGTCC | 0.186 |
| AACAAGAG | -0.207 |
| CATGCCAC | -0.108 |
| AAAATTAA | -0.1 |
| CTTTCACA | -0.0482 |
| GCGGCCTA | -0.0386 |
| GAGTGAGA | -0.0217 |
| ATAGCCAT | -0.21 |
| AGTTGGGA | -0.125 |
| CTACCAGA | -0.0785 |
| ACGACACA | -0.28 |
| ATAGCTCG | 0.11 |
| CTGATGAA | -0.367 |
| AACCTGTC | -0.155 |
| ATTCGACC | -0.0677 |
| CGCGTTCC | 0.126 |
| TGTAATAA | -0.121 |
| TCACAAGA | -0.127 |
| ATGCGTAC | -0.0502 |
| GTTTGCGA | -0.00112 |
| CGCCGAAC | 0.344 |
| CGCAGCCA | -0.124 |
| GGTCACGA | -0.128 |
| CGGCAGAA | 0.217 |

| Sequence | PBM E-score |
| --- | --- |
| TGGAACCA | -0.063 |
| CAAGGTGA | -0.159 |
| ATAACCGA | 0.386 |
| GCAGTGCC | -0.0503 |
| ATATGTCA | -0.0291 |
| AGATTCCT | -0.194 |
| GCCTATAC | 0.0541 |
| CAAGTAAG | -0.197 |
| GCATCTGA | -0.171 |
| CAGCGAGG | -0.142 |
| AAACGATT | -0.043 |
| CCATTTGC | -0.116 |
| ACGAACCA | -0.038 |
| GACCGTCC | 0.146 |
| AACACGTA | -0.187 |
| AACGTAGG | -0.148 |
| CCAAACAG | -0.269 |
| GAGTAGAC | -0.0721 |
| CAAAGCTC | -0.0216 |
| GAGCGCTA | -0.0038 |
| GCCAGGAA | -0.262 |
| AGTGACAT | -0.142 |
| AATTCATA | -0.164 |
| CCAGTTAA | -0.137 |
| GTTATCCA | 0.00074 |

| Sequence | PBM E-score |
| --- | --- |
| CCATAGAC | -0.225 |
| CTGTTTAC | -0.142 |
| ACTCTGCC | -0.189 |
| ACCGAGAA | 0.271 |
| CTCCTAAC | -0.191 |
| AATCATCA | -0.146 |
| ACAGCAGG | -0.0219 |
| CATGGAAA | -0.00359 |
| GAGTGGGA | -0.0227 |
| CCCATTAA | -0.116 |
| CCACGCGG | 0.0658 |
| GCTATTTA | -0.0431 |
| GAAGCATA | -0.141 |
| ATGACGGA | 0.195 |
| ACGCACTG | -0.121 |
| AAAAGACA | -0.0875 |
| ATGTCTTG | 0.0789 |
| AAGCGAAG | -0.0165 |
| AGTGAATG | -0.00975 |
| ACAATCAT | -0.0714 |
| GCGCAAGA | 0.0177 |
| TACGATCA | -0.221 |
